# Measurements reported in PubChem BioAssay AID1159614 (National Center for Advancing Translational Sciences (NCATS), 2016).
# Out of some 45,000 compounds screened, about 65 (0.1%) were called active. Calls follow the shape of the dose curve; as a rule, active = well fitted activation curve with a large enough effect; inconclusive = small, poorly fitted or top-dose-only effect; inactive = no such curve, though single readings can be large or run the other way. This is one part of the list.
# Target: Galactocerebrosidase (Homo sapiens) (UniProt P54803)
# Sequence of UniProt P54803 (P54803 whole entry, looked up): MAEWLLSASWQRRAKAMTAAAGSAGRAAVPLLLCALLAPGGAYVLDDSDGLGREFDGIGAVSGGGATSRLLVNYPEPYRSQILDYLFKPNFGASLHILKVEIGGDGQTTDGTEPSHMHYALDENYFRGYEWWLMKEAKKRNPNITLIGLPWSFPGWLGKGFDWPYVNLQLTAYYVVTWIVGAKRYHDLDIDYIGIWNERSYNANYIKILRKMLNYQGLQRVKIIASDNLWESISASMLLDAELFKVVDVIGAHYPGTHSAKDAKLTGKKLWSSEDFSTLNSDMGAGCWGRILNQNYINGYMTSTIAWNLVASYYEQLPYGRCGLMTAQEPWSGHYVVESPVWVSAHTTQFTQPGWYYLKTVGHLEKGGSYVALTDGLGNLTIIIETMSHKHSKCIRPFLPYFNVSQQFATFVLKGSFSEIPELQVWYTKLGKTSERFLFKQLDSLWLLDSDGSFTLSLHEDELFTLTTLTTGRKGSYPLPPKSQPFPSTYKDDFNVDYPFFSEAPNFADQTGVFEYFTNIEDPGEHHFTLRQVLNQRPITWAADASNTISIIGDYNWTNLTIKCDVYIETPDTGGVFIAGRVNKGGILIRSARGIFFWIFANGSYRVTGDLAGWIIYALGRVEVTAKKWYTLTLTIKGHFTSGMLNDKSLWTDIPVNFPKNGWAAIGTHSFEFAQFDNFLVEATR
# Test: A Novel Cell-Based Assay to Identify Small Molecules for B -Galactocerebrosidase; also: nearly all actives have a fitted effect of over 65% in size; as to activation: 0% is about no effect
# Conditions: 145M-Twi-hGALC-G270D cells (Twitcher mouse brain line with human GALC G270D), HMU-beta-Gal fluorescence, 48 h; series mostly up to 57.5 µM; activation: at the top concentration
# Outline: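 Fluorescence readout: HMU-β-gal cleavage by mutant GALC (0.1 mM final, citrate/phosphate pH 5.2 with 1 mg/mL taurocholate), stopped with carbonate/bicarbonate plus Triton X-100. Cells: murine Twitcher 145M-Twi expressing human G270D GALC; qHTS for activators.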
# Potency is read from the fitted curve at half-maximal effect.
SMILES,activation,Potency
CCC(=O)N1c2ccccc2CC1C(=O)NCCCN1CCN(c2ccccc2)CC1 (stereo not given),inactive: -30.3%,
COc1ccccc1CNC(=O)c1cc2sccc2n1Cc1ccc(F)cc1,inactive: -24.8%,
Cc1ccc(C)c(NC(=O)c2cc(S(=O)(=O)N3CCc4ccccc4C3)ccc2F)c1,inactive: -3.23%,
COc1ccc(C2C=C(c3ccc(C)cc3)Nc3c(C(=O)Nc4ccccc4)cnn32)cc1 (stereo not given),inactive: -14.2%,
CCCS(=O)(=O)c1c(S(=O)(=O)CCC)c2cc(C(C)(C)C)ccn2c1C(=O)c1ccc(OC)c(OC)c1,inactive: -12.8%,
COc1ccc(Br)cc1CNC(=O)CCCn1c(=O)c2cccn2c2cccnc21,inactive: 16.5%,
CCc1cccc(NC(=O)Cn2c(C(=O)OC)cc3occc32)c1,inactive: -26.1%,
COCCCn1c(SCc2ccccc2F)nc2c(sc3ccccc32)c1=O,,active: 31.6 µM
COc1ccccc1NC(=O)Cn1c(=O)n(-c2ccccc2Cl)c(=O)c2sc3ccccc3c21,inactive: -2.76%,
O=C(Cn1ncc2c3ccccc3n(Cc3ccccc3)c2c1=O)N1CCCCCC1,inactive: -11.3%,
COc1ccc(-c2noc(-c3ccccc3OCC(=O)Nc3ccc(C(C)=O)cc3)n2)cc1,inactive: -11%,
CN=C(NC#N)NCCSCc1nc[nH]c1C,inactive: -6.7%,
CCOC(=O)c1[nH]c2ccccc2c1NC(=O)c1cc(Cl)ccc1Cl,inactive: -22.7%,
CCN(CC)S(=O)(=O)c1ccc2c(c1)N(CC(=O)Nc1ccc(F)cc1F)C(=O)C1CCCN21 (stereo not given),inactive: -14.2%,
Cc1ccc(CNc2ccc(-c3nc(-c4cccnc4)no3)cc2[N+](=O)[O-])cc1,inactive: -8.3%,
COc1ccc(CNC(=O)CCCCCn2c(=O)[nH]c3ccccc3c2=O)cc1,inactive: -12.5%,
Oc1cccc(-c2nc3ncccn3c2Nc2cccc(C(F)(F)F)c2)c1,inactive: 1.39%,
NCCO,inactive: -18% [at 114 µM],
COc1cc(NC(=O)Cn2c(C)cc(C)c(C#N)c2=O)cc(OC)c1,inactive: -12.1%,
CCOC(=O)c1[nH]c2ccccc2c1NC(=O)c1ccc(OC)c(OC)c1,inactive: -8.51%,
CCn1cc(C(=O)NCCc2ccc(Cl)cc2)c(=O)c2cc(S(=O)(=O)N3CCOCC3)ccc21,inactive: -9.12%,
Cc1ccc2c(=O)cc(C(=O)Nc3ccc(S(=O)(=O)N4CCCCC4)cc3)oc2c1C,inactive: -15%,
Cc1cccc(N2CCN(c3ncnc4onc(-c5ccc(F)cc5)c34)CC2C)c1 (stereo not given),inactive: -10.6%,
COc1ccccc1Cc1nc2ccccc2nc1SCC(=O)NCc1ccc(F)cc1,inactive: -5.92%,

SMILES,activation,Potency
COc1ccccc1Nc1nc2c(S(=O)(=O)c3ccc(C(C)C)cc3)nnn2c2ccsc12,inactive: -12.6%,
CC(C)(C)C(=O)Nc1ccc(Cl)c(-c2nc3ccccc3[nH]2)c1,inactive: -8.7%,
O=C(Cn1c(=O)n(Cc2ccc(C(=O)NCc3ccccc3Cl)cc2)c(=O)c2ccccc21)Nc1ccc(F)cc1,inactive: -5.24%,
Cc1coc2cc3oc(=O)c(CC(=O)NCCc4ccccc4F)c(C)c3cc12,inactive: -9.54%,
Cc1c(-c2ccccc2)n(-c2ccc(Cl)cc2)c2nc3c(c(=O)n(C)c(=O)n3C)n12,inactive: -12.6%,
Cc1cc(C)c2oc(-c3ccc(NC(=O)c4cc(Br)ccc4Cl)cc3)nc2c1,inactive: -22.1%,
Cc1ccc(NC(=O)CCc2nc3cccnc3n2-c2ccccc2)cc1,inactive: -10.7%,
O=C(Nc1cccc(Cl)c1)N1Cc2ccccc2Oc2ncccc21,inactive: -2.35%,
CCc1ccc(NC(=O)CN2C(=O)C(=O)c3ccccc32)cc1,inactive: -10.9%,
COc1ccc(S(=O)(=O)Nc2ccc(O)c(Sc3nc4ccccc4s3)c2)cc1,inactive: 0.14%,
CCCC(=O)NC1CC(=O)N(c2ccc3c(c2)OCCO3)C1 (stereo not given),inactive: -16.6%,
O=C(Nc1cccc(C(=O)OCc2cc(=O)n3nc(C4CC4)sc3n2)c1)c1ccc(F)cc1,inactive: -13.7%,
CC(=O)c1ccc(S(=O)(=O)N2CCC(Oc3ccc(-n4cnnn4)cc3)CC2)cc1,inactive: -2.6%,
COc1ccccc1C1C(C(N)=O)=C(C)Nc2nc(SCc3ccccc3F)nn21 (stereo not given),inactive: -8.42%,
Cc1c(C(=O)N(C)C)sc2c1c(=O)n(-c1ccc(Cl)c(Cl)c1)c(=O)n2Cc1ccc(F)cc1,inactive: -9.52%,
O=c1c(-c2ccc(O)cc2)coc2cc(O)cc(O)c12,inactive: -14%,
COc1ccc(NC(=O)CCS(=O)(=O)c2cc(Br)cc3c2N(C(C)=O)CC3)c(OC)c1,inactive: -9.51%,
CCOc1ccccc1NC(=O)c1ccc2oc(=O)c(S(=O)(=O)c3ccc(F)cc3)cc2c1,inactive: -17.9%,
CN(C(=O)CSc1nc2ccc(NC(=O)c3ccc(F)cc3)cc2s1)c1ccccc1,inactive: -36.5%,
Cc1cccc(N2CCN(C(=O)Cn3nc(C)c4sc5ccccc5c4c3=O)CC2C)c1 (stereo not given),inactive: -9.47%,
CCn1cc(C(=O)N(C)Cc2ccccc2)c(=O)c2cc(S(=O)(=O)N3CCCCC3)ccc21,inactive: -20.8%,
COc1ccc(-c2onc(C)c2C)cc1S(=O)(=O)NC1CCCCC1,inactive: 4.82%,
CCOC(=O)Nc1ccc2c(c1)N(C(=O)CCN1CCOCC1)c1ccccc1S2,inactive: -8.73%,
CSc1ccc(Nc2nn(-c3ccc(OC(F)(F)F)cc3)nc2C(C)=O)cc1,inactive: -7.88%,

SMILES,activation,Potency
Cc1c(C(=O)N2CCOCC2)oc2c1-c1nn(CC(=O)NCc3ccccc3)cc1CC2,inactive: 0.92%,
Cn1c(=O)n(C)c2cc(CNCc3ccc(C(=O)O)cc3)ccc21,inactive: 4.3%,
CCOC(=O)c1cccc(NC(=O)CCc2c(C)nc3c4cccnc4nn3c2C)c1,inactive: -18.2%,
CCOC(=O)Cn1nc(N2CCN(c3ccc(F)cc3)CC2)ccc1=O,inactive: -18%,
Cc1ccc(CN2C(=O)C3(SCC(=O)N3c3ccc(C)c(C)c3)c3ccccc32)cc1 (stereo not given),inactive: -29.3%,
COC(=O)C1=C(c2ccccc2)c2ccccc2S(=O)(=O)N1CC(=O)Nc1cc(C)ccc1C,inactive: -4.99%,
Cc1cccc(N2CCN(c3c(CN4CCCC4)c(=O)oc4ccccc34)CC2)c1C,inactive: -13.2%,
Cc1ccc2c(c1)N(CC(=O)NCc1cccc(Cl)c1)C(=O)c1cccnc1O2,inactive: 8.98%,
COc1ccccc1Cn1c(CNS(=O)(=O)c2c(C)cc(C)cc2C)nc2cccnc21,inactive: -31.6%,
CCOCCn1ccc2c(OCC(=O)Nc3cc(C(F)(F)F)ccc3Cl)cccc2c1=O,inactive: -3.69%,
CCOc1ccc(CCNC(=O)c2cc3cc4ccc(OC)cc4nc3s2)cc1OCC,inactive: -13.7%,
O=C(CSc1c2c(nc3ccc(Cl)cc13)CCCC2)N1CCCCC1,inactive: -9.74%,
Cc1ccccc1OCC(=O)Nc1ccc(S(=O)(=O)Nc2ncccn2)cc1,inactive: -11.4%,
CC(=O)c1cccc(NC(=O)c2ccc3c(c2)CCN3S(=O)(=O)c2ccccc2)c1,inactive: -30.7%,
CCOCCCn1c(=N)c(S(=O)(=O)c2ccccc2)cc2c(=O)n3cc(C)ccc3nc21,inactive: -12.8%,
Cc1ccc(-n2nc(C)c3c(C)c(CCC(=O)NCc4cccc(Cl)c4)c(C)nc32)cc1C,inactive: 5.69%,
CCn1cc(S(=O)(=O)c2ccccc2)c(=O)c2cc(F)c(N3CCCCCC3)cc21,inactive: -7.91%,
COc1ccc(-c2nc(C)c(CCNC(=O)c3cccc(C)c3)s2)cc1OC,inactive: -10.7%,
CCC12CN3CC(C)(CN(C1)C3c1c(C)[nH]c3ccccc13)C2=O (stereo not given),inactive: -2.65%,
CCOc1ccc(C2C(C(=O)Nc3ccc(C)cc3C)=C(C)Nc3c(C(=O)Nc4ccc(C)cc4)cnn32)cc1OC (stereo not given),inactive: -11.7%,
COc1ccc(CCNC(=O)C(C)n2nc(C)c3sc4ccccc4c3c2=O)cc1OC (stereo not given),inactive: -16.1%,
COc1ccc(-c2nc3c(C#N)c[nH]n3c2NC2CCCCC2)cc1,inactive: 20%,
COc1ccc(C2NC(=O)N(C)C3=C2C(=O)N(c2ccccc2)C3)cc1 (stereo not given),inactive: 2.4%,
Nc1c2c(nc3c1CCC3)CCCC2,inactive: -7.31%,

SMILES,activation,Potency
COc1ccc(C(=O)Oc2c(Sc3ccc(C)cc3)c(C)nn2C(C)(C)C)c(OC)c1,inactive: -15.6%,
C=Cc1ccc(Cn2c(C(=O)O)c(CNCc3cc(OC)ccc3OC)c3ccc(C)cc32)cc1,inactive: -14.6%,
COCCNC(=O)C(=O)Nc1ccc2nc3n(c(=O)c2c1)CCCCC3,inactive: -5.44%,
COC(=O)[C@H]1[C@H]2C[C@@H]3c4[nH]c5cc(OC)ccc5c4CCN3C[C@H]2C[C@@H](OC(=O)c2cc(OC)c(OC)c(OC)c2)[C@@H]1OC,inactive: -11.1%,
COc1cccc(C2=CC(c3ccccc3F)n3ncc(C(=O)Nc4ccc(F)cc4)c3N2)c1 (stereo not given),inactive: -20%,
Cc1ccc(Nc2c(-c3cccnc3)nc3ccc(C)cn23)cc1,inactive: -21.8%,
COc1ccccc1C(=O)NC1(C(F)(F)F)NC(=O)N(CCc2ccccc2)C1=O (stereo not given),inactive: -8.42%,
O=C(CSc1nnc2scc(-c3ccc(Cl)cc3)n12)Nc1ccc(F)cc1,inactive: -23.2%,
CCOCCCNC(=O)C(c1ccc(C)cc1)N(Cc1ccc2c(c1)OCO2)C(=O)c1ccccc1O (stereo not given),inactive: -6.49%,
CCc1nn(CC(=O)N2CCN(c3cccc(C)c3)C(C)C2)c(=O)c2cc3sccc3n12 (stereo not given),inactive: 7.04%,
Cc1cc(C)c(NC(=O)CSc2nc(=O)n(Cc3ccncc3)c3c2CCC3)c(C)c1,inactive: -5.41%,
CCOC(=O)N1CCc2c(sc(NCc3cc(OC)ccc3OC)c2C(=O)Nc2cc(OC)ccc2OC)C1,inactive: -7.47%,
O=C(CSc1nc2c([nH]c3ccccc32)c(=O)n1-c1ccccc1)Nc1cccc(C(F)(F)F)c1,inactive: -1.77%,
O=C(NC1CCCCC1)c1ccc(CSc2nc3ccncc3n2Cc2cccc(F)c2)cc1,inactive: -16.5%,
CCc1ccc(CNC(=O)c2ccc3c(c2)c(C)c(C)n3Cc2ccccc2)cc1,inactive: -27.4%,
Cc1ccc(N(C)C(=O)Cn2ncc3c([nH]c4ccccc43)c2=O)cc1C,inactive: -16.1%,
COc1ccc(NC(=O)CCc2c(C)nn(-c3ccc(N4CCCC4)nn3)c2C)cc1Cl,inactive: 16.8%,
Cc1ccc(S(=O)(=O)NC(=O)NC2CCCCCCC2)cc1,inactive: -8.07%,
Cc1ccc(NC(=O)CCn2cccn2)c(C)c1,inactive: -7.59%,
COc1ccc(N2CCN(C(=O)Cn3cnc4sc(C)c(S(=O)(=O)N5CCCCC5)c4c3=O)CC2)cc1,inactive: -13.3%,
Cc1ccc(Cn2c(=O)n(CCc3ccccc3)c(=O)c3sc4ccccc4c32)cc1,inactive: -2.63%,
CCOCCCNC(=O)C1CCN(c2nc3ccc(C)cc3[nH]2)CC1,inactive: 5.86%,
COC(=O)c1cc(-c2ccc(Cl)cc2)c2c(=O)[nH]c(=O)n(C)c2n1,inactive: -11.1%,
